From patent publication EP4684807A1, “LINKER AND USE THEREOF IN LIGAND DRUG CONJUGATE” (priority 2023, dated 2024)

B1: ADC-1D: "control ADC-1D" incubated in human plasma beside ADC-20C (conjugate)
heavy: QVQLQQPGTEVVKPGASVKLSCKASGFTFPLYWMHWVRQRPGRGLEWIGRIIPIFGHTKYNEKFKNKATLTADESSSTAYMELRSLTSDDSAVYYCARGGYYYYPREGFLDYWGQGTSVTVSS[not shown - human IgG1 constant region]
light: DIVMTQSPASLSVSPGERASISCRSSQSVDYSGDSYMNWYQQKPGQSPRLLIYAASDRESGVPDRFSGSGSGTDFTLKISRVEEEDAGTYYCQQSREDPFTFGQGTKVDIKRTVAAPSVFIFPPSDEQLKSGTASVVCLLNNFYPREAKVQWKVDNALQSGNSQESVTEQDSKDSTYSLSSTLTLSKADYEKHKVYACEVTHQGLSSPVTKSFNRGEC
B2: ADC-2D (conjugate)
heavy: B1 heavy
light: B1 light

Experiment: Plasma stability test, free drug (MMAE) by LC-MS/MS
Assay type: in vitro ADME
Details: human plasma, 37°C, 100 µg/mL
Procedure: Free drugs were analyzed by LC-MS/MS.
The free drug standard was prepared as a 1 mg/mL stock solution in DMSO. The free drug stock solution was diluted in blank plasma matrix by gradient dilution to prepare a standard curve with concentrations ranging from 1.0 to 100 ng/mL, as well as QC samples at three concentration levels, namely 3.0 ng/mL (LQC), 40.0 ng/mL (MQC), and 75.0 ng/mL (HQC).
100 µL of each of the study sample, standard curve sample, and QC sample were mixed with acetonitrile. The samples were thoroughly mixed by vortex for 1 minute and centrifuged in a centrifuge at 12000 rpm for 5 minutes to precipitate proteins. The supernatant was transferred to a 96-well plate for LC-MS/MS analysis.
LC-MS instrument detection method for free drugs
Data were acquired and analyzed using ChromeleonTM software.

Molecule	MMAE release ratio (%) (2h)	MMAE release ratio (%) (8h)	MMAE release ratio (%) (1d)	MMAE release ratio (%) (4d)	MMAE release ratio (%) (7d)	MMAE release ratio (%) (time 0)
B1	A (A < 1)	A (A < 1)	A (A < 1)	A (A < 1)	A (A < 1)	0
B2	A (A < 1)	A (A < 1)	A (A < 1)	A (A < 1)	A (A < 1)	0
